From patent US7364874B2, “Mediucm for detecting Van A and Van B vancomycin-resistant entercocci and method of using the same” (priority 2001, dated 2008)
Like-named read-outs stand apart in the source and are kept apart here.

What was measured:
Test in all cases: Test Example 2: vancomycin MIC changes when D-lactic acid (DL-sodium lactate) is added (checkerboard method)
Format in all cases: cell-based
[1] = system: Enterococcus faecalis that does not carry vancomycine resistance genes (incl. ATCC29212); conditions: for vancomycin MIC values: 35° C., 48 hours, E. faecalis, resistance gene None, strain = table row; for MIC: Enterococcus faecalis, ATCC29212, 48 h
[2] = system: Enterococcus faecium that does not carry vancomycine resistance genes; conditions: for vancomycin MIC values: 35° C., 48 hours, E. faecium, resistance gene None, strain = table row; for MIC: Enterococcus faecium, 48 h
[3] = system: Enterococcus avium that does not carry vancomycine resistance genes; conditions: for vancomycin MIC values: 35° C., 48 hours, E. avium, resistance gene None, strain = table row; for MIC: Enterococcus avium, 48 h
[4] = system: Van C type, Enterococcus gallinarum; conditions: for vancomycin MIC values: 35° C., 48 hours, E. gallinarum, vanC, strain = table row; for MIC: Enterococcus gallinarum, GALLINARUM, 48 h
[5] = system: Van C type, Enterococcus casseliflavus; conditions: for MIC: Enterococcus casseliflavus, 48 h
[6] = DL-sodium lactate added 0 mol/l
[7] = DL-sodium lactate added 0.05 mol/l
[8] = DL-sodium lactate added 0.1 mol/l

With CN[C@H](CC(C)C)C(=O)N[C@H]1C(=O)N[C@@H](CC(N)=O)C(=O)N[C@H]2C(=O)N[C@H]3C(=O)N[C@H](C(=O)N[C@H](C(=O)O)c4cc(O)cc(O)c4-c4cc3ccc4O)[C@H](O)c3ccc(c(Cl)c3)Oc3cc2cc(c3O[C@@H]2O[C@H](CO)[C@@H](O)[C@H](O)[C@H]2O[C@H]2C[C@](C)(N)[C@H](O)[C@H](C)O2)Oc2ccc(cc2Cl)[C@H]1O [vancomycin] the “vancomycin MIC values” [1, 6] was 2 µg/mL, the “vancomycin MIC values” ([1]; DL-sodium lactate added […]) was 0.5 µg/mL and the MIC ([1]; read-out: vancomycin MIC values, DL-sodium lactate added 0 mol/l, 35° C., E. faecalis, resistance gene None, strain = table row) was 1 µg/mL. The MIC ([1]; read-out: vancomycin MIC values, DL-sodium lactate added 0.05 mol/l, 35° C., E. faecalis, resistance gene None, strain = table row) was 2 µg/mL, the MIC ([1]; read-out: vancomycin MIC values, DL-sodium lactate added 0.1 mol/l, 35° C., E. faecalis, resistance gene None, strain = table row) was 2 µg/mL and the MIC ([1]; read-out: vancomycin MIC values, DL-sodium lactate added 0.2 mol/l, 35° C., E. faecalis, resistance gene None, strain = table row) was 2 µg/mL. The MIC ([1]; read-out: vancomycin MIC values, DL-sodium lactate added 0.4 mol/l, 35° C., E. faecalis, resistance gene None, strain = table row) was 2 µg/mL, the MIC ([1]; read-out: vancomycin MIC values, DL-sodium lactate added 0.8 mol/l, 35° C., E. faecalis, resistance gene None, strain = table row) was 2 µg/mL and the “vancomycin MIC values” [2, 7] was 2 µg/mL. For the same compound, the “vancomycin MIC values” ([2]; DL-sodium lactate added […]) was 2 µg/mL, the MIC ([2]; read-out: vancomycin MIC values, DL-sodium lactate added 0 mol/l, 35° C., E. faecium, resistance gene None, strain = table row) was 1 µg/mL and the MIC ([2]; read-out: vancomycin MIC values, DL-sodium lactate added 0.05 mol/l, 35° C., E. faecium, resistance gene None, strain = table row) was 1 µg/mL. For the same compound, the MIC ([2]; read-out: vancomycin MIC values, DL-sodium lactate added 0.1 mol/l, 35° C., E. faecium, resistance gene None, strain = table row) was 2 µg/mL, the MIC ([2]; read-out: vancomycin MIC values, DL-sodium lactate added 0.2 mol/l, 35° C., E. faecium, resistance gene None, strain = table row) was 2 µg/mL and the MIC ([2]; read-out: vancomycin MIC values, DL-sodium lactate added 0.4 mol/l, 35° C., E. faecium, resistance gene None, strain = table row) was 2 µg/mL. The MIC ([2]; read-out: vancomycin MIC values, DL-sodium lactate added 0.8 mol/l, 35° C., E. faecium, resistance gene None, strain = table row) was 2 µg/mL, the MIC ([2]; read-out: vancomycin MIC values, DL-sodium lactate added […], 35° C., E. faecium, resistance gene None, strain = table row) was 1 µg/mL and the “vancomycin MIC values” [3, 6] was 2 µg/mL. The “vancomycin MIC values” [3, 7] was 2 µg/mL, the “vancomycin MIC values” [3, 8] was 2 µg/mL and the MIC ([3]; read-out: vancomycin MIC values, DL-sodium lactate added 0 mol/l, 35° C., E. avium, resistance gene None, strain = table row) was 1 µg/mL. It also gave an MIC ([3]; read-out: vancomycin MIC values, DL-sodium lactate added 0.05 mol/l, 35° C., E. avium, resistance gene None, strain = table row) of 1 µg/mL, an MIC ([3]; read-out: vancomycin MIC values, DL-sodium lactate added 0.1 mol/l, 35° C., E. avium, resistance gene None, strain = table row) of 1 µg/mL and an MIC ([3]; read-out: vancomycin MIC values, DL-sodium lactate added 0.2 mol/l, 35° C., E. avium, resistance gene None, strain = table row) of 2 µg/mL. The MIC ([3]; read-out: vancomycin MIC values, DL-sodium lactate added 0.4 mol/l, 35° C., E. avium, resistance gene None, strain = table row) was 2 µg/mL, the MIC ([3]; read-out: vancomycin MIC values, DL-sodium lactate added 0.8 mol/l, 35° C., E. avium, resistance gene None, strain = table row) was 2 µg/mL and the MIC ([3]; read-out: vancomycin MIC values, DL-sodium lactate added […], 35° C., E. avium, resistance gene None, strain = table row) was 1 µg/mL. The “vancomycin MIC values” [4, 6] was 16 µg/mL, the “vancomycin MIC values” [4, 7] was 16 µg/mL and the “vancomycin MIC values” [4, 8] was 16 µg/mL. For the same compound, the MIC ([4]; read-out: vancomycin MIC values, DL-sodium lactate added 0 mol/l, 35° C., E. gallinarum, vanC, strain = table row) was 8 µg/mL, the MIC ([4]; read-out: vancomycin MIC values, DL-sodium lactate added 0.05 mol/l, 35° C., E. gallinarum, vanC, strain = table row) was 8 µg/mL and the MIC ([4]; read-out: vancomycin MIC values, DL-sodium lactate added 0.1 mol/l, 35° C., E. gallinarum, vanC, strain = table row) was 8 µg/mL. The MIC ([4]; read-out: vancomycin MIC values, DL-sodium lactate added 0.2 mol/l, 35° C., E. gallinarum, vanC, strain = table row) was 16 µg/mL, the MIC ([4]; read-out: vancomycin MIC values, DL-sodium lactate added 0.4 mol/l, 35° C., E. gallinarum, vanC, strain = table row) was 16 µg/mL and the MIC ([4]; read-out: vancomycin MIC values, DL-sodium lactate added 0.8 mol/l, 35° C., E. gallinarum, vanC, strain = table row) was 16 µg/mL. For the same compound, the MIC ([4]; read-out: vancomycin MIC values, DL-sodium lactate added […], 35° C., E. gallinarum, vanC, strain = table row) was 8 µg/mL, the “vancomycin MIC values” ([5]; DL-sodium lactate added 0.1 mol/l, 35° C., 48 hours, E. casseliflavus, vanC, strain = table row) was 16 µg/mL and the MIC ([5]; read-out: vancomycin MIC values, DL-sodium lactate added 0 mol/l, 35° C., E. casseliflavus, vanC, strain = table row) was 8 µg/mL. It also gave an MIC ([5]; read-out: vancomycin MIC values, DL-sodium lactate added 0.05 mol/l, 35° C., E. casseliflavus, vanC, strain = table row) of 8 µg/mL, an MIC ([5]; read-out: vancomycin MIC values, DL-sodium lactate added 0.1 mol/l, 35° C., E. casseliflavus, vanC, strain = table row) of 8 µg/mL and an MIC ([5]; read-out: vancomycin MIC values, DL-sodium lactate added 0.2 mol/l, 35° C., E. casseliflavus, vanC, strain = table row) of 16 µg/mL. It also gave an MIC ([5]; read-out: vancomycin MIC values, DL-sodium lactate added 0.4 mol/l, 35° C., E. casseliflavus, vanC, strain = table row) of 16 µg/mL, an MIC ([5]; read-out: vancomycin MIC values, DL-sodium lactate added 0.8 mol/l, 35° C., E. casseliflavus, vanC, strain = table row) of 16 µg/mL and an MIC ([5]; read-out: vancomycin MIC values, DL-sodium lactate added […], 35° C., E. casseliflavus, vanC, strain = table row) of 8 µg/mL.
